Tests used:
[1] = 100 uM, fresh rat serum, 37 C, 0 hour
in vitro [2] = details: rat, plasma, 37 C
[3] = 100 uM, fresh rat plasma, 37 C, 0 hour
in vitro [4] = details: rat, serum, 37 C
[5] = remaining compound in rat plasma (control), 24 hour control, inactive rat plasma (56 C for 2.0 hour)

Question: With `N=C(N)NCCC[C@H](NC(=O)[C@@H]1CCCN1C(=O)OCc1ccccc1)C(=O)Nc1ccc(COC(=O)NCCCC(O)(P(=O)(O)O)P(=O)(O)O)cc1` [Compound 6, (4-((((4-((S)-2-((S)-1-((benzyloxy)carbonyl)pyrrolidine-2-carboxamido)-5-guanidinopentanamido)benzyl)oxy)carbonyl)amino)-1-hydroxybutane-1,1-diyl)bis(phosphonic acid)] as the compound, how does the “remaining compound in rat serum” value [1] read?
Answer: 93%

Question: What about the remaining at 24 h, 100 uM (in vitro [2]; [5]) of the same compound?
Answer: 86%

Question: Which “remaining compound in rat serum” value [1] does the source give for `CC(C)C[C@H](NC(=O)OCc1ccccc1)C(=O)N[C@@H](CCCNC(=N)N)C(=O)Nc1ccc(COC(=O)NCCCC(O)(P(=O)(O)O)P(=O)(O)O)cc1` [Compound 7] here?
Answer: 99%

Question: For `N=C(N)NCCC[C@H](NC(=O)[C@@H]1CCCN1C(=O)CNC(=O)OCc1ccccc1)C(=O)Nc1ccc(COC(=O)NCCCC(O)(P(=O)(O)O)P(=O)(O)O)cc1` [Compound 8, (4-((((4-((S)-2-((S)-1-(((benzyloxy)carbonyl)glycyl)pyrrolidine-2-carboxamido)-5-guanidinopentanamido)benzyl)oxy)carbonyl)amino)-1-hydroxybutane-1,1-diyl)bis(phosphonic acid)], which “remaining compound in rat plasma” value [3] is on record?
Answer: 95%

Question: What about the “remaining compound in rat serum” value [1] of the same compound?
Answer: 91%

Question: And the remaining at 24 h, 100 uM (in vitro [2]; [5])?
Answer: 49%

Question: And the remaining at 1 h, 100 uM (in vitro [2]; remaining compound in rat plasma, fresh rat plasma, 1 hour)?
Answer: 51%

Question: What about the remaining at 2 h, 100 uM (in vitro [2]; remaining compound in rat plasma, fresh rat plasma, 2 hour) of the same compound?
Answer: 38%

Question: And the remaining at 4 h, 100 uM (in vitro [2]; remaining compound in rat plasma, fresh rat plasma, 4 hour)?
Answer: 17%

Question: What about the remaining at 24 h, 100 uM (in vitro [2]; remaining compound in rat plasma, fresh rat plasma, 24 hour) of the same compound?
Answer: 16%

Question: What about the remaining at 24 h, 100 uM (in vitro [4]; remaining compound in rat serum (control), 24 hour control, inactive rat serum (56 C for 2.0 hour)) of the same compound?
Answer: 93%

Question: What about the remaining at 1 h, 100 uM (in vitro [4]; remaining compound in rat serum, fresh rat serum, 1 hour) of the same compound?
Answer: 82%

Question: What about the remaining at 2 h, 100 uM (in vitro [4]; remaining compound in rat serum, fresh rat serum, 2 hour) of the same compound?
Answer: 72%

Question: What about the remaining at 4 h, 100 uM (in vitro [4]; remaining compound in rat serum, fresh rat serum, 4 hour) of the same compound?
Answer: 68%

Question: What about the remaining at 24 h, 100 uM (in vitro [4]; remaining compound in rat serum, fresh rat serum, 24 hour) of the same compound?
Answer: 64%

— US9650414B1, “Dual-action EP4 agonist—bisphosphonate conjugates and uses thereof” (Simon Fraser University, priority 2014, dated 2017)
